Experimental data published in the supplement of paper PMC4967469.
A lower IC50 marks a more sensitive line; a fit beyond the top or the lowest dose is shown as a bound at that dose. AUC, from the same fit, is the share of area under the viability curve across the 256-fold dose range: 1 means no effect, lower means more sensitive. For part of these data: An inferred top dose comes from the curve model; the source does not state it. For part of these data: An entry number marks a drug with two screens in the source, which often give different values.

Experiments:
Experiment in all cases: Viability of human cancer cell lines after 72 h of drug (GDSC screen)
Docetaxel = compound: CC(=O)O[C@@]12CO[C@@H]1C[C@H](O)[C@@]1(C)C(=O)[C@H](O)C3=C(C)[C@@H](OC(=O)[C@H](O)[C@@H](NC(=O)OC(C)(C)C)c4ccccc4)C[C@@](O)([C@@H](OC(=O)c4ccccc4)[C@H]21)C3(C)C [Docetaxel]; settings: top dose 0.0125 µM
Experimental: (§1)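 Human cancer cell lines in 384-well plates, medium with 10% serum, drug for 72 h over a 256-fold dose range (nine 2-fold or five 4-fold steps up to the top dose). Adherent lines were fixed and stained with the nucleic acid dye Syto60, suspension lines read with resazurin; signal relative to control wells, capped at 0 and 100%. One two-parameter sigmoid per drug and line, fitted in a mixed model over all curves with the slope shared within a line.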

AMG-706 = compound: CC1(C)CNc2cc(NC(=O)c3cccnc3NCc3ccncc3)ccc21 [AMG-706]; settings: top dose 2 µM; top dose inferred
Experimental: as §1

JNK Inhibitor VIII = compound: CCOc1nc(NC(=O)Cc2cc(OC)ccc2OC)cc(N)c1C#N [JNK Inhibitor VIII]; settings: top dose 10 µM; top dose inferred
Experimental: as §1

NSC-207895 = compound: CN1CCN(c2ccc([N+](=O)[O-])c3no[n+]([O-])c23)CC1 [NSC-207895]; settings: top dose 20 µM; top dose inferred
Experimental: as §1

FTI-277 = compound: COC(=O)[C@H](CCSC)NC(=O)c1ccc(NC[C@@H](N)CS)cc1-c1ccccc1 [FTI-277]; settings: top dose 1.024 µM; top dose inferred
Experimental: as §1

YM155 = compound: COCC[n+]1c2c(n(Cc3cnccn3)c1C)C(=O)c1ccccc1C2=O [YM155]; settings: top dose 5.12 µM
Experimental: as §1

OSI-906 = compound: C[C@]1(O)C[C@@H](c2nc(-c3ccc4ccc(-c5ccccc5)nc4c3)c3c(N)nccn32)C1 [OSI-906]; settings: top dose 2.56 µM; top dose inferred
Experimental: as §1

SB-715992 = compound: Cc1ccc(C(=O)N(CCCN)[C@@H](c2nc3cc(Cl)ccc3c(=O)n2Cc2ccccc2)C(C)C)cc1 [SB-715992]; settings: top dose 0.128 µM; top dose inferred
Experimental: as §1

JQ1 = compound: Cc1sc2c(c1C)C(c1ccc(Cl)cc1)=N[C@@H](CC(=O)OC(C)(C)C)c1nnc(C)n1-2 [JQ1]
Experimental: as §1

Belinostat = compound: O=C(/C=C/c1cccc(S(=O)(=O)Nc2ccccc2)c1)NO [Belinostat]; settings: top dose 20 µM; top dose inferred
Experimental: as §1

JNJ-26854165 = compound: c1ccc2c(CCNc3ccc(Nc4ccncc4)cc3)c[nH]c2c1 [JNJ-26854165]; settings: top dose 10 µM
Experimental: as §1

[1] = top dose 1 µM, screen: GDSC drug entry 1218, top dose inferred
[2] = top dose 2.56 µM, screen: GDSC drug entry 163

Row | Cell Line | AUC (Docetaxel) | IC50 (Docetaxel) [nM] | AUC (AMG-706) | IC50 (AMG-706) [nM] | AUC (JNK Inhibitor VIII) | IC50 (JNK Inhibitor VIII) [nM] | AUC (NSC-207895) | IC50 (NSC-207895) [nM] | AUC (FTI-277) | IC50 (FTI-277) [nM] | AUC (YM155) | IC50 (YM155) [nM] | AUC (OSI-906) | IC50 (OSI-906) [nM] | AUC (SB-715992) | IC50 (SB-715992) [nM] | AUC (JQ1; [1]) | IC50 (JQ1; [1]) [nM] | AUC (JQ1; [2]) | IC50 (JQ1; [2]) [nM] | AUC (Belinostat) | IC50 (Belinostat) [nM] | AUC (JNJ-26854165) | IC50 (JNJ-26854165) [nM]
1 | CaR-1 (large intestine, adherent) | 0.701 | 3.85 | 0.97 | > 2000 | 0.977 | > 10000 | 0.96 | > 20000 | 0.959 | > 1020 | 0.048 | < 20 | 0.971 | > 2560 | 0.904 | > 128 | 0.975 | > 1000 | 0.854 | > 2560 | 0.527 | 1530 | 0.928 | > 10000
2 | FTC-133 (thyroid, adherent) | 0.439 | 0.522 | 0.954 | > 2000 | 0.964 | > 10000 | 0.88 | > 20000 | 0.843 | 836 | 0.04 | < 20 | 0.955 | > 2560 | 0.983 | > 128 | 0.973 | > 1000 | 0.908 | > 2560 | 0.667 | 3840 | 0.821 | 6530
3 | H2869 (mesothelioma, adherent) | 0.939 | > 12.5 | 0.941 | > 2000 | 0.946 | > 10000 | 0.96 | > 20000 | 0.977 | > 1020 | 0.118 | < 20 | 0.746 | 979 | 0.97 | > 128 | 0.982 | > 1000 | 0.931 | > 2560 | 0.523 | 1470 | 0.913 | > 10000
4 | SKN (uterus, adherent) | 0.595 | 1.5 | 0.782 | 1030 | 0.938 | > 10000 | 0.724 | 6280 | 0.979 | > 1020 | 0.039 | < 20 | 0.971 | > 2560 | 0.897 | > 128 | 0.955 | > 1000 | 0.825 | 1990 | 0.466 | 987 | 0.871 | > 10000
5 | HCC1395 (breast, adherent) | 0.888 | > 12.5 | 0.939 | > 2000 | 0.962 | > 10000 | 0.98 | > 20000 | 0.969 | > 1020 | 0.409 | 171 | 0.981 | > 2560 | 0.96 | > 128 | 0.978 | > 1000 | 0.548 | 222 | 0.797 | 11700 | 0.875 | > 10000
